Test results: the supplement of paper PMC3334620
Over roughly 33,000 sequences, “E-score (-0.5 to 0.5)” has its median near -0.032; the highest 2% begin near 0.36. Some of the results follow.

These sequences were tested against T1, Sko1 (UniProt Q02100) (assay: PBM E-score (8-mer binding enrichment) (E-score (-0.5 to 0.5)); higher = stronger / more preferred TF binding; most listed sequences are background and not binding sites). Conditions: protein concentration: 200 nM; construct: GST-full length.
T1 sequence: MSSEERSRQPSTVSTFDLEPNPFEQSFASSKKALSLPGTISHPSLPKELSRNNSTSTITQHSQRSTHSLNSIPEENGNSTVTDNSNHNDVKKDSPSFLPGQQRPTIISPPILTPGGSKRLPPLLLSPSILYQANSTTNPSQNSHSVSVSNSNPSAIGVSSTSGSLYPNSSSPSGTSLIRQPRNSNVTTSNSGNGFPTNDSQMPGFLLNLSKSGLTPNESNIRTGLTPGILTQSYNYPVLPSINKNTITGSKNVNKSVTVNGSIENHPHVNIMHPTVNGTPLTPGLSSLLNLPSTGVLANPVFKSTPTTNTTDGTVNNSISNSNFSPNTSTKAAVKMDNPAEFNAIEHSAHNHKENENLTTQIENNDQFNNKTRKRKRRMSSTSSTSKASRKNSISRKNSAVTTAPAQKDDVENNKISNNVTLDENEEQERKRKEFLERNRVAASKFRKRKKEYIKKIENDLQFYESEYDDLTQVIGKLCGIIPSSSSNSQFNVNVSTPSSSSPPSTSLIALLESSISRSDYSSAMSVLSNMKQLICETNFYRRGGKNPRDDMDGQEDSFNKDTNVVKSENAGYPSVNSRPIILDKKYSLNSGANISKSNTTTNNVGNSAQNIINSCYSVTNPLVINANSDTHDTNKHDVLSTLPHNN
Procedure, shortened: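 GST-tagged yeast TFs (full-length or DNA-binding domain) were made by PURExpress in vitro transcription/translation and applied at about 100-200 nM to universal all-10-mer Agilent arrays. The arrays were made double-stranded by primer extension, on fresh or once-stripped slides. Bound protein was detected with fluorescent anti-GST, and scans were normalised with masliner. Each ungapped eight-base word, pooled with its reverse complement, received an E-score (modified Wilcoxon-Mann-Whitney statistic) from the Universal PBM Analysis Suite.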

| Sequence | PBM E-score |
| --- | --- |
| ACCGGGGG | -0.247 |
| GTCCTAAA | 0.144 |
| ATTAAATC | 0.118 |
| ATTGATTA | 0.181 |
| GTATAATA | 0.213 |
| GTGTACAC | 0.122 |
| TACAGGCA | 0.083 |
| CGTGTTAC | 0.186 |
| AGGGCATA | -0.00767 |
| AGATCATG | 0.199 |
| ACGCCGGG | -0.267 |
| ACCCAGCT | -0.356 |
| GACGTAGA | 0.42 |
| CAATGTAG | -0.215 |
| AGGTCACC | -0.128 |
| AGCCAGAG | -0.262 |
| AATAATAC | 0.214 |
| CCTGTCTC | -0.354 |
| AAGTGCAC | -0.0109 |
| ACACGCTA | -0.00511 |
| GCGACTTA | -0.0438 |
| CTCCGTAC | -0.153 |

| Sequence | PBM E-score |
| --- | --- |
| CGATAAAG | 0.0438 |
| AGTCATGA | 0.0664 |
| TATCAGGA | 0.066 |
| ACAGGTAC | 0.0509 |
| CAAACATC | 0.115 |
| AAATAGTT | 0.0866 |
| AACGCGCC | -0.14 |
| CCCATTGC | -0.189 |
| GCGGACGC | -0.0227 |
| CTCGACTC | -0.273 |
| ACCTACAA | 0.22 |
| GAAATTCC | -0.11 |
| ATGGTAAG | -0.145 |
| CACCCTAA | 0.0798 |
| GCGCTCAA | -0.187 |
| CATTCTGA | -0.0118 |
| GGATGGAC | -0.181 |
| ACAGTTCA | 0.13 |
| CGCCTCCA | -0.144 |
| ATCACTGC | 0.118 |
| GTCTGTAA | -0.0738 |
| GAACGATC | 0.0123 |

| Sequence | PBM E-score |
| --- | --- |
| TCACTGGA | -0.0849 |
| CTACCCGC | -0.212 |
| CCTCCCGA | -0.191 |
| AACCATGC | -0.0424 |
| AGTTAAAC | 0.23 |
| ACGGCCAG | -0.237 |
| AAAGTCAA | -0.0312 |
| GCTCTGAC | 0.0572 |
| CCGGAACA | -0.076 |
| ACCACATG | 0.0825 |
| GGCCCAAC | -0.146 |
| TAAATGAA | 0.00474 |
| ACTTAGGC | -0.209 |
| ACCCCGTC | -0.289 |
| CTGCCAAC | -0.208 |
| CCCGGAGG | -0.324 |
| CACTCTAG | -0.0141 |
| GATCACAC | -0.0314 |
| AGGGTTTC | -0.247 |
| GCTGTCAC | -0.108 |
| CGGTTCCA | -0.211 |
| AGAACGGG | -0.124 |

| Sequence | PBM E-score |
| --- | --- |
| CTGAAAAA | -0.00669 |
| CCTTATTC | -0.0963 |
| ACAACGTA | 0.416 |
| ACACCGCC | -0.255 |
| CGGCCCCG | -0.266 |
| AGGGTTAC | 0.0177 |
| AAATCAAT | 0.113 |
| GCAGGCAA | 0.0424 |
| CTATCTAA | 0.0229 |
| CAACCGCG | 0.173 |
| AACAAGAT | -0.0255 |
| CGATGCAC | -0.0249 |
| AGTCCAGG | -0.276 |
| ATAGGAGA | 0.0294 |
| GGCCGTAA | -0.148 |
| AGCTAGAT | 0.0295 |
| CCCCTTGA | -0.226 |
| TAGGTTCA | -0.0685 |
| ATCCACAC | -0.117 |
| TACTTCCA | 0.0806 |
